As a reminder, the Kd is the free concentration of one partner at which half of the binding sites on the other are occupied at equilibrium, for simple one-to-one binding. A low value points to tighter binding.

We go through 3 molecules from patent US20150368316A1 (ALBERT EINSTEIN COLLEGE OF MEDICINE OF YESHIVA UNIVERSITY, published 2015).

For test [1], the target named is T1, human PD-L2-Ig (immobilized) (human, UniProt Q9BQ51 20-219).
T1 construct: also called huPD-L2; huPD-L2-Ig; not shown: Ig part of the fusion
T1 sequence (looked up): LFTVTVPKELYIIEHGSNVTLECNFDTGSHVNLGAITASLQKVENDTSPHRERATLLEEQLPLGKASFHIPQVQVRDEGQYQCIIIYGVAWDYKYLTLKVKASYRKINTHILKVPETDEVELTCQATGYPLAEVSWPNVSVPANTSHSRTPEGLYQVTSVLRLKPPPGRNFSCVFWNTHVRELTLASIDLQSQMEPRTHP
Put plainly: Kd from fitting (SPR).

The target in the next test is T2, mouse PD-L2-Ig (mouse, UniProt Q9WUL5 20-219).
T2 construct: also called mPD-L2-Ig; not shown: Ig part of the fusion
T2 sequence (looked up): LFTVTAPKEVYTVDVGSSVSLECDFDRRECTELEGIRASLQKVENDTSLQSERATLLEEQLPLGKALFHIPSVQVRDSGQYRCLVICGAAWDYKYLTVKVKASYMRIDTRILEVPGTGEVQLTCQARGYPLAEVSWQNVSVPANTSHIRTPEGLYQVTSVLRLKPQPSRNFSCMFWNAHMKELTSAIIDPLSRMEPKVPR
Put plainly: Kd from fitting (SPR).

The target of a further test is T3, mouse PD-L1-Ig (mouse, UniProt Q9EP73 partial chain).
T3 construct: also called mPD-L1-Ig; not shown: Ig part of the fusion
Put plainly: Kd from fitting (SPR).

For test [2], the target named is T1, human PD-L2-Ig (immobilized). Put plainly: SPR, equilibrium fit; immobilized ligand, soluble PD-1. As to the method: The A132 mutant PD-1 was made and the binding affinities of wild-type and A132 mutant PD-1 to PD-L1 and PD-L2 were compared. […] Also see Table 2.
Equilibrium dissociation constants (Kds) were determined by non-linear fitting of SPR data, using immobilized PD-Ligands and soluble wild-type or mutant PD-1. Kd values are in μM concentration, followed by the standard errors of the fittings.
Background: Surface plasmon resonance follows binding to a sensor surface in real time, without labels.

The target in test [3] is T4, human PD-L2 on mature human monocyte-derived dendritic cells (human, UniProt Q9BQ51 20-273).
T4 construct: whole, on cells
T4 sequence (looked up): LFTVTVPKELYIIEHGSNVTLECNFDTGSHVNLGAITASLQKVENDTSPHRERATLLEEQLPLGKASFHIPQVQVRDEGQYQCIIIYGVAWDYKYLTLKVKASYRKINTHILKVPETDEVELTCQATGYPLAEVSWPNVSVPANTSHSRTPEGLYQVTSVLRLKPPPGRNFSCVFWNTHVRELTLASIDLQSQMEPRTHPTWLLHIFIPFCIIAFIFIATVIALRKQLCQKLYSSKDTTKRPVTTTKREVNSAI
As to the kind of experiment: flow cytometry on mature DCs expressing PD-L1 and PD-L2; against wild-type PD-1 Ig. As to the method: (§1) FIG. 2A-2B. […] Monocytes were obtained from PBMCs of healthy donors and differentiated into dendritic cells over 5 days in the presence of GM-CSF and IL-4, then treated with TNF-α to promote the formation of “mature” dendritic cells. […] Blue histograms: PD-L1 or PD-L2 antibody staining; red histograms: isotype controls. B) Increased binding of HA PD-1 Ig to “mature” human DCs. Kd value is calculated from the mean fluorescence intensities (MFI) of Ig fusion protein binding, as detected by flow cytometry.
(§2) Blue histograms: PD-L1 or PD-L2 antibody staining; red histograms: isotype controls. […] Kd value is calculated from the mean fluorescence intensities (MFI) of Ig fusion protein binding, as detected by flow cytometry.

Test [4] has as its target T5, human PD-L1 on mature human monocyte-derived dendritic cells (human, UniProt Q9NZQ7).
T5 construct: whole, on cells
T5 sequence (Q9NZQ7 19-290): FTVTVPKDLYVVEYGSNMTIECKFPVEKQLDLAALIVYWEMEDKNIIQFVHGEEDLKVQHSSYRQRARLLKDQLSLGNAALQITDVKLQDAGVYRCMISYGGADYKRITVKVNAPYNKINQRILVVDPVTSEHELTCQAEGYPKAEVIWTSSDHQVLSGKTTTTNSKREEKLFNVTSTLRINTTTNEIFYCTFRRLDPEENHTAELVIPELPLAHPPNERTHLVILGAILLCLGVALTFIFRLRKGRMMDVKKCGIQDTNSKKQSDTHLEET
Described as above. As to the method:
as §1, §2

mouse PD-L1-Ig, sequence (Q9EP73 19-238): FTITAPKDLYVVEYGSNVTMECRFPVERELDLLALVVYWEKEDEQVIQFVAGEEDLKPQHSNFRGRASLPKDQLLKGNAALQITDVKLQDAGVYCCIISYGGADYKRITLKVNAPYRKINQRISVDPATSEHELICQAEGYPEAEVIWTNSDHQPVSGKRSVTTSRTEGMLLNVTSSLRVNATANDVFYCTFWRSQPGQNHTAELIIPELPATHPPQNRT

B1: human PD-1, wild-type, soluble (monovalent) (receptor)
chain: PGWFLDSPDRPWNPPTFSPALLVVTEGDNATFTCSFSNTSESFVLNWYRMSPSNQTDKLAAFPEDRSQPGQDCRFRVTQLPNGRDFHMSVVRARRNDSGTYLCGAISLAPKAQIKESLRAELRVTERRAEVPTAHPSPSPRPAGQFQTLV
notes: Used as soluble analyte in SPR; A soluble form would lack the transmembrane and intracellular parts; the Ig construct uses […]; also called huPD-1; hu PD-1
For B1, the Kd in test [1] came to 190 nM; with mouse PD-L2-Ig, 270 nM; with mouse PD-L1-Ig, 3810 nM; in test [2] it was 188 nM.

B2: human PD-1 A132L high-affinity (HA) mutant, soluble (monovalent) (receptor)
chain: not shown
notes: Used as soluble analyte in SPR; also called huA132L; hu HA PD-1
In the case of B2, the Kd amounted to 6.5 nM in test [1], 29 nM with mouse PD-L2-Ig, 230 nM with mouse PD-L1-Ig and 6.5 nM in test [2].

B3: human high-affinity PD-1 Ig (HA huPD-1-Ig), A132L PD-1 fused to human IgG1 Fc (Fc fusion)
chain: PGWFLDSPDRPWNPPTFSPALLVVTEGDNATFTCSFSNTSESFVLNWYRMSPSNQTDKLAAFPEDRSQPGQDCRFRVTQLPNGRDFHMSVVRARRNDSGTYLCGAISLAPKLQIKESLRAELRVTERRAEVPTAHPSPSPRSAGQFQVDLVPRGSGGS[… human IgG1 Fc and a few adjoining residues …]
notes: also called HA PD-1 Ig; mutant PD-1 Ig
Turning to B3, the “fold tighter binding than wild type (avidity)” value in test [3] and in test [4] was greater than 100 fold throughout.
